Measured values reported in patent publication US5166348A, “Bornyl and isobornyl esters of carboxylic acids of condensed tetrahydroquinoxalines” (Uralsky politekhnichesky institut, priority 1989, dated 1992).

Experiments:
Format in all cases: in vivo
Details in all cases: for Virus titres (lg EID50): 1 mg/embryo; for log reduction at 1 mg/embryo: 48 h, read-out: Titre difference in control and experiment (lg EID50)
[1] = system: influenza virus A, A(Riga)9951/86/H3N2/; test: sensitivity of influenza virus A strain A(Riga)9951/86/H3N2/ in chick embryos
[2] = system: influenza virus A, A(Victoria)35/72/H3N2/; test: sensitivity of influenza virus A strain A(Victoria)35/72/H3N2/ in chick embryos
[3] = system: influenza virus A, A(Moscow)2878/86/H3N2/; test: sensitivity of influenza virus A strain A(Moscow)2878/86/H3N2/ in chick embryos
[4] = system: influenza virus A, A(Moscow)2848/86/H3N2/; test: sensitivity of influenza virus A strain A(Moscow)2848/86/H3N2/ in chick embryos
[5] = system: influenza virus A, A(Moscow)2813/86/H3N2/; test: sensitivity of influenza virus A strain A(Moscow)2813/86/H3N2/ in chick embryos

| SMILES | Virus titres (lg EID50) [1] [lg EID50] | log reduction at 1 mg/embryo [1] | Virus titres (lg EID50) [2] [lg EID50] | log reduction at 1 mg/embryo [2] | Virus titres (lg EID50) [3] [lg EID50] | log reduction at 1 mg/embryo [3] | Virus titres (lg EID50) [4] [lg EID50] | log reduction at 1 mg/embryo [4] | Virus titres (lg EID50) [5] [lg EID50] | log reduction at 1 mg/embryo [5] |
| --- | --- | --- | --- | --- | --- | --- | --- | --- | --- | --- |
| CC(N)C12CC3CC(CC(C3)C1)C2 (centres unmarked) [remantadine, reference compound] | 4.75 | 1.25 | 6.0 | 0.25 | 7.5 | 0.7 | 6.75 | 1.25 | 5.5 | 1.75 |
| CC1=C(C(=O)OC2CC3CCC2(C)C3(C)C)C2Nc3ccccc3N(C)C2O1 (centres unmarked) [compound 1a, isobornyl ester of 2,9-dimethyl-3a,4,9,9a-tetrahydrofuro [2,3-b] quinoxaline-3-carboxylic acid] | 4.5 | 1.5 | 4.0 | 2.25 | 4.0 | 4.2 | 4.5 | 3.5 | 4.75 | 2.5 |
